Experimental data reported in patent publication US20250230210A1 (PARTNER THERAPEUTICS, published 2025).

Target: T1, GM-CSF cognate receptor on TF-1 cells (human, UniProt P15509 23-400; P32927 17-897)
T1 sequence (looked up) 1: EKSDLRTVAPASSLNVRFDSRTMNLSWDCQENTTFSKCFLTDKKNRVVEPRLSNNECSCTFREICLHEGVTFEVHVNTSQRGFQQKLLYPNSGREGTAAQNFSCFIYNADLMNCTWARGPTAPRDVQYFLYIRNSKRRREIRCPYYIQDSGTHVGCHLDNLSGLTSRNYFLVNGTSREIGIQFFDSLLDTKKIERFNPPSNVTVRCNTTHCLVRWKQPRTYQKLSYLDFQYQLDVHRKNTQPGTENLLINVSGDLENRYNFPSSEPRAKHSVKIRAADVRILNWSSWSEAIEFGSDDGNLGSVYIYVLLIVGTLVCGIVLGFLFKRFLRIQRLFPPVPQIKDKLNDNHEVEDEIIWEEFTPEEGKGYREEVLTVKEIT
T1 sequence (looked up) 2: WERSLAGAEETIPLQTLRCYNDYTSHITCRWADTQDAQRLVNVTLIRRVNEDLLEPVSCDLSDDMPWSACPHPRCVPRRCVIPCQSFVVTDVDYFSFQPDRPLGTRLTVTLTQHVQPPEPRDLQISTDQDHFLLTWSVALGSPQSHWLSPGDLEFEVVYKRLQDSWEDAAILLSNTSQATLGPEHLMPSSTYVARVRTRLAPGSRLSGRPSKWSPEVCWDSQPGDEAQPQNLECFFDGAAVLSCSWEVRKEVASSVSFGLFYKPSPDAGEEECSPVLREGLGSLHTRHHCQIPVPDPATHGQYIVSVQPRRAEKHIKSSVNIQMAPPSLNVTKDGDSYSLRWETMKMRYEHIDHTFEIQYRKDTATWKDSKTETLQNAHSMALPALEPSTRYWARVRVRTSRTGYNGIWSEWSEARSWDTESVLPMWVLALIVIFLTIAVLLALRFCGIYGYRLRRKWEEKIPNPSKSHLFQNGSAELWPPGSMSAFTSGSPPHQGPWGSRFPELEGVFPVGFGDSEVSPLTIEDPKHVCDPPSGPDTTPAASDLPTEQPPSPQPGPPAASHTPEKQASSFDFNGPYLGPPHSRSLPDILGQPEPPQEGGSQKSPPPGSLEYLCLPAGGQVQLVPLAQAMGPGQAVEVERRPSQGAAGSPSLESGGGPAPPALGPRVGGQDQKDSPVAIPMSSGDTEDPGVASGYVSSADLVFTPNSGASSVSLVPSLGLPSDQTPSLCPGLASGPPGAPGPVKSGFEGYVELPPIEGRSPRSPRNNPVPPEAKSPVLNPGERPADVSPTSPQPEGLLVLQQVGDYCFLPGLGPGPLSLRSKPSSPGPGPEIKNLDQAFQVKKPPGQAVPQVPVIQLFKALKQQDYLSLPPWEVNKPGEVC
Experiment: cell-based or functional assay

B1: LEUKINE (sargramostim) (ligand)
chain: not shown
EC50 (read off the curve), TF-1 cell proliferation without human serum albumin: ~4 pM
